# Experimental data as given in article PMC4336329 (PLoS ONE, 2015).
# About 2,200 (0.71%) of roughly 310,000 compounds showed an effect of 50% or more. The effect is printed as a negative number. The list shows a part of the results.
# Target: human ether-à-go-go-related gene (hERG) potassium channel (human, UniProt Q12809)
# Assay: primary screen, population patch clamp on CHO cells stably expressing hERG
# human ether-à-go-go-related gene (hERG) potassium channel, sequence (Q12809 whole entry, looked up): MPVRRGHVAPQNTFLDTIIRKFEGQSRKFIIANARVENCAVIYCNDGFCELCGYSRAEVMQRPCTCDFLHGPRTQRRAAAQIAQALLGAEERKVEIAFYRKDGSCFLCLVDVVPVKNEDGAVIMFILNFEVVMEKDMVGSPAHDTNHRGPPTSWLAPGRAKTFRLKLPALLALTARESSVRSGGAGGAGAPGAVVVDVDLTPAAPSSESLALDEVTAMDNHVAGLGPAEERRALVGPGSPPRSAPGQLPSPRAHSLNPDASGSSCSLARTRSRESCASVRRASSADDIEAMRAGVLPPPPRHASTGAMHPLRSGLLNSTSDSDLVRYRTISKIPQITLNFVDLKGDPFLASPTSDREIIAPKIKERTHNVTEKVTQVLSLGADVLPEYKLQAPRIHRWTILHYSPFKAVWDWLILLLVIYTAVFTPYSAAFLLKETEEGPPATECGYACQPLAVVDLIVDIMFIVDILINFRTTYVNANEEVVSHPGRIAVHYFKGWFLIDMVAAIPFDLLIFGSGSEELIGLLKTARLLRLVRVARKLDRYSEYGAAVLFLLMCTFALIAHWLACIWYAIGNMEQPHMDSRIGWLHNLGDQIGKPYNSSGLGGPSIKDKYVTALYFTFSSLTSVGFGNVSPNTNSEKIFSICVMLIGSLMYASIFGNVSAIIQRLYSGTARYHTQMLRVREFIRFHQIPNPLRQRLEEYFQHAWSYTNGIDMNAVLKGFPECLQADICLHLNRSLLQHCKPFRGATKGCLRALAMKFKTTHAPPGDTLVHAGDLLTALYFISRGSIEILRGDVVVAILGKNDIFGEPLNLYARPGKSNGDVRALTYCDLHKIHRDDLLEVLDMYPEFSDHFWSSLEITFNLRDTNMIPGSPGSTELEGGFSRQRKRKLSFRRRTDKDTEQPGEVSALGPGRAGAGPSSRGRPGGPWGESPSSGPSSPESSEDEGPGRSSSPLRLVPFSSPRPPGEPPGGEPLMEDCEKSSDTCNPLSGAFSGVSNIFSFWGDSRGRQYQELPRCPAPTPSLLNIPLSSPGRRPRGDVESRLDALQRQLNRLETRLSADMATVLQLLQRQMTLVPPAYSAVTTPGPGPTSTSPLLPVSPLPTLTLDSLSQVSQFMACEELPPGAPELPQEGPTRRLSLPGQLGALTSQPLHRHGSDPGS
row,Compound,"hERG current change (%, negative = inhibition) at 1uM [%]"
1,O=C(NC(=S)NNS(=O)(=O)c1ccccc1)c1cccnc1,17.3
2,Cc1nc2sc3c(c2c(=O)o1)CCCC3,7.29
3,COc1ccc(CNC(=O)C(C)OC(=O)CCN2C(=O)C3CC=CCC3C2=O)cc1 (stereo not drawn),6.55
4,Cc1ccccc1C1CC(c2ccc(F)cc2)Nc2nc(N)nn21 (stereo not drawn),-18.2
5,Cc1cccc(C(=O)OC(C)CN2CCCC2)c1.Cl (stereo not drawn),13.4
6,Cc1onc(-c2ccccc2)c1CNC(=O)C1COc2ccccc2O1 (stereo not drawn),1.47
7,COc1ccc(C)cc1NC(=O)C1COc2ccccc2O1 (stereo not drawn),5.27
8,CC(C)C(=O)Nc1ccc(N2CCN(c3ccc(F)cc3)CC2)cc1,12.7
9,CSCC[C@H](NC(=O)N1CCn2c1nc1ccccc12)C(=O)N[C@@H](C(=O)O)c1ccccc1,-1.35
10,COc1cccc(C2=NOC(C(=O)Nc3ccc(C(C)=O)cc3)C2)c1 (stereo not drawn),0.0862
11,CCOC(=O)C(NC(C)=O)(NC(C)C)C(F)(F)F (stereo not drawn),11.3
12,CCOC(=O)N1CCC(N2CCCC(C(=O)c3cc(C)c(OC)c(C)c3)C2)CC1 (stereo not drawn),-28.1
13,O=C(Cn1cnc2cc([N+](=O)[O-])ccc2c1=O)NCc1ccccc1,5.57
14,Cn1c(=O)c2c(nc(CN3CCC(C(N)=O)CC3)n2Cc2ccccc2Cl)n(C)c1=O,7.64
15,Cc1ccc(NC(=O)COC(=O)C2CC2)c(Br)c1,7.04
16,CC(C(=O)OCC(=O)Nc1ccc(S(=O)(=O)N2CCCCC2)cc1)N1C(=O)c2ccccc2C1=O (stereo not drawn),12.9
17,COC(=O)c1ccc(C(=O)N(C)C2CCCN(Cc3ccccc3F)C2)cc1 (stereo not drawn),3.95
18,Cc1ccc(NC(=O)c2cccc(S(=O)(=O)N(C)c3ccccc3)c2)cc1S(=O)(=O)N1CCOCC1,9.86
19,CC1CC(C)CN(CC(=O)N2CCOCC2)C1.Cl (stereo not drawn),8.87
20,COC(=O)CCN(C(=O)c1cccc(OC(C)=O)c1)c1ccccn1,11.4
21,Cc1ccc(C2N(c3nccs3)C(=O)C3CCCN32)cc1 (stereo not drawn),6.75
22,O=C(Nc1ccc2nc(-c3ccccc3)[nH]c2c1)c1cccs1,1.23
23,COc1ccc2c(C)cc3n[nH]c(=S)n3c2c1,10.7

row,Compound,"hERG current change (%, negative = inhibition) at 1uM [%]"
1,CC1/C(=N/O)CC(c2ccccc2)N(C)C1c1ccccc1 (stereo not drawn),14.2
2,O=S(=O)(NC1CCSc2ccccc21)c1ccc(Cl)nc1 (stereo not drawn),7.47
3,Cc1ccc(Nc2nc3c([nH]2)c(=O)n(C)c(=O)n3C)cc1,4.74
4,CNC(=S)NNC(=O)Cn1ccc(C)n1,-0.173
5,CC(C)N(C(=O)COC(=O)CNC(=O)c1ccc(Br)cc1)c1ccccc1,15.5
6,CNS(=O)(=O)c1cc2c3c(cccc3c1)C(=O)NC2=O,8.87
7,COc1ccc(C(=O)n2c(SC)nc3cc4c(cc32)OCCO4)cc1,9.73
8,Oc1c(Cl)cc(Cl)cc1/C=N/c1nccs1,-5.02
9,O=C(O)Cc1ccc(-c2ccccc2-c2ccccc2)cc1,7.1
10,COc1cccc(NC(=O)c2cccc(OC)c2OC)c1,7.39
11,CCOCCCNC(=O)c1ccc(N(C)S(=O)(=O)c2ccc(OC)cc2)cc1,7.45
12,CCCn1nc2cc(C(=O)NCc3ccccc3)ccc2c1OCC,3.87
13,CCN(CC)S(=O)(=O)c1ccc2c(c1)nc(SCC(=O)NC1CC1)n2-c1ccccc1OC,-9.78
14,Cc1ccccc1NS(=O)(=O)c1cccc2nonc12,12.5
15,C/C(=N/NC(=O)c1ccoc1C)c1ccc(NC(=O)c2ccncc2)cc1,10.3
16,COc1ccc(C(=O)C2=NN(C(C)=O)CC2c2ccco2)cc1 (stereo not drawn),8.53
17,Cc1cccc(-n2cnc(C(=O)NNC(=S)Nc3ccc(Cl)cc3)c2)n1,11.8
18,CC(=O)c1cc(NC(=O)c2ccc(Cl)cc2)c(=O)oc1/C=C/N(C)C,0.673
19,COc1ccc(CN(Cc2nc3ccccc3c(=O)[nH]2)C(=O)c2ccco2)cc1,10.4
20,CN1CCN(c2nc(-c3ccc(C(C)(C)C)cc3)nc3ccccc23)CC1.Cl,2.04
21,COc1ccc2nc(NC(=O)C3CSC4(C)CCC(=O)N34)sc2c1 (stereo not drawn),3.14
22,C[C@@]12C(=O)Nc3cc(Cl)ccc3C(=O)N1[C@H]1c3cc(Br)ccc3OC[C@@H]1[C@@H]2c1ccccc1,13.7
